The supplement of paper PMC12230231
± gives the standard deviation of the averaged measurements. Restriction of a single-cycle SIVsab GFP reporter by TRIM5α v1-loop variants in CRFK cells. Human variants: read share among cells still uninfected after two challenges over input, higher = gained restriction. Rhesus variants: share among infected cells over input, higher = lost restriction. Reporter dose not given per row. No active / inactive call per row; the paper calls a change when both replicates lie above its controls (mean + 2 SD of stop or wild-type variants, or the top frameshift score). Residues outside the varied loop are taken from Swiss-Prot. The paper reads the human single-substitution scores as noise; they and the rhesus combinations repeat poorly (rank correlation 0.3 to 0.4), indel scores repeat only for the top variants, rhesus substitutions well (0.9).

What follows are sequences tested on SIVsab (simian immunodeficiency virus of sabaeus monkeys), single-cycle GFP reporter, in CRFK cells (assay: enrichment among uninfected cells over input (fold); higher = stronger restriction). Conditions: library: human / rhesus combinations.
Description: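 Pools of CRFK cells expressing variants of the TRIM5α v1 loop were challenged with the single-cycle reporter, sorted by GFP and sequenced; mean of two replicates.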

Sequence	enrichment
MASGILVNVKEEVTCPICLELLTQPLSLDCGHSFCQACLTANHKKSMLDKGESSCPVCRISYQPENIRPNRHVANIVEKLREVKLSPEGQKVDHCARHGEKLLLFCQEDGKVICWLCERSQEHRGHHTFLTEEVAREYQVKLQAALEMLRQKQQEAEELEADIREEKASWKTQIQYDKTNVLADFEQLRDILDWEESNELQNLEKEEEDILKSLTNSETEMVQQTQSLRELISDLEHRLQGSVMELLQGVDGVIKRTENVTLKKPETFPKNQRRVFRAPDLKGMLEVFRELTDVRRYWVDVTVAPNNISCAVISEDKRQVSSPKPQIIYQARGTLYTFQSFTNFNYCTGILGSQSITSGKHYWEVDVSKKTAWILGVCAGFQPDAMCNIEKNENYQPKYGYWVIGLEEGVKCSAFQDSSFHTPSVPFIVPLSVIICPDRVGVFLDYEACTVSFFNITNHGFLIYKFSHCSFSQPVFPYLNPRKCGVPMTLCSPSS [human TRIM5α, 330-340 = QARGTLYTFQSFT]	0.408 ± 0.095
MASGILVNVKEEVTCPICLELLTQPLSLDCGHSFCQACLTANHKKSMLDKGESSCPVCRISYQPENIRPNRHVANIVEKLREVKLSPEGQKVDHCARHGEKLLLFCQEDGKVICWLCERSQEHRGHHTFLTEEVAREYQVKLQAALEMLRQKQQEAEELEADIREEKASWKTQIQYDKTNVLADFEQLRDILDWEESNELQNLEKEEEDILKSLTNSETEMVQQTQSLRELISDLEHRLQGSVMELLQGVDGVIKRTENVTLKKPETFPKNQRRVFRAPDLKGMLEVFRELTDVRRYWVDVTVAPNNISCAVISEDKRQVSSPKPQIIYQARGTLFTFQTLTNFNYCTGILGSQSITSGKHYWEVDVSKKTAWILGVCAGFQPDAMCNIEKNENYQPKYGYWVIGLEEGVKCSAFQDSSFHTPSVPFIVPLSVIICPDRVGVFLDYEACTVSFFNITNHGFLIYKFSHCSFSQPVFPYLNPRKCGVPMTLCSPSS [human TRIM5α, 330-340 = QARGTLFTFQTLT]	0.0575 ± 0.0057
MASGILVNVKEEVTCPICLELLTQPLSLDCGHSFCQACLTANHKKSMLDKGESSCPVCRISYQPENIRPNRHVANIVEKLREVKLSPEGQKVDHCARHGEKLLLFCQEDGKVICWLCERSQEHRGHHTFLTEEVAREYQVKLQAALEMLRQKQQEAEELEADIREEKASWKTQIQYDKTNVLADFEQLRDILDWEESNELQNLEKEEEDILKSLTNSETEMVQQTQSLRELISDLEHRLQGSVMELLQGVDGVIKRTENVTLKKPETFPKNQRRVFRAPDLKGMLEVFRELTDVRRYWVDVTVAPNNISCAVISEDKRQVSSPKPQIIYGAPGTRFPSLTNFNYCTGILGSQSITSGKHYWEVDVSKKTAWILGVCAGFQPDAMCNIEKNENYQPKYGYWVIGLEEGVKCSAFQDSSFHTPSVPFIVPLSVIICPDRVGVFLDYEACTVSFFNITNHGFLIYKFSHCSFSQPVFPYLNPRKCGVPMTLCSPSS [human TRIM5α, 330-340 = GAPGTRFPSLT]	0.295 ± 0.41
MASGILVNVKEEVTCPICLELLTQPLSLDCGHSFCQACLTANHKKSMLDKGESSCPVCRISYQPENIRPNRHVANIVEKLREVKLSPEGQKVDHCARHGEKLLLFCQEDGKVICWLCERSQEHRGHHTFLTEEVAREYQVKLQAALEMLRQKQQEAEELEADIREEKASWKTQIQYDKTNVLADFEQLRDILDWEESNELQNLEKEEEDILKSLTNSETEMVQQTQSLRELISDLEHRLQGSVMELLQGVDGVIKRTENVTLKKPETFPKNQRRVFRAPDLKGMLEVFRELTDVRRYWVDVTVAPNNISCAVISEDKRQVSSPKPQIIYGARGTRYPSLVNFNYCTGILGSQSITSGKHYWEVDVSKKTAWILGVCAGFQPDAMCNIEKNENYQPKYGYWVIGLEEGVKCSAFQDSSFHTPSVPFIVPLSVIICPDRVGVFLDYEACTVSFFNITNHGFLIYKFSHCSFSQPVFPYLNPRKCGVPMTLCSPSS [human TRIM5α, 330-340 = GARGTRYPSLV]	0.000738 ± 7.1e-05
MASGILVNVKEEVTCPICLELLTQPLSLDCGHSFCQACLTANHKKSMLDKGESSCPVCRISYQPENIRPNRHVANIVEKLREVKLSPEGQKVDHCARHGEKLLLFCQEDGKVICWLCERSQEHRGHHTFLTEEVAREYQVKLQAALEMLRQKQQEAEELEADIREEKASWKTQIQYDKTNVLADFEQLRDILDWEESNELQNLEKEEEDILKSLTNSETEMVQQTQSLRELISDLEHRLQGSVMELLQGVDGVIKRTENVTLKKPETFPKNQRRVFRAPDLKGMLEVFRELTDVRRYWVDVTVAPNNISCAVISEDKRQVSSPKPQIIYGAPGTRFTFPSLTNFNYCTGILGSQSITSGKHYWEVDVSKKTAWILGVCAGFQPDAMCNIEKNENYQPKYGYWVIGLEEGVKCSAFQDSSFHTPSVPFIVPLSVIICPDRVGVFLDYEACTVSFFNITNHGFLIYKFSHCSFSQPVFPYLNPRKCGVPMTLCSPSS [human TRIM5α, 330-340 = GAPGTRFTFPSLT]	0.181 ± 0.035
MASGILVNVKEEVTCPICLELLTQPLSLDCGHSFCQACLTANHKKSMLDKGESSCPVCRISYQPENIRPNRHVANIVEKLREVKLSPEGQKVDHCARHGEKLLLFCQEDGKVICWLCERSQEHRGHHTFLTEEVAREYQVKLQAALEMLRQKQQEAEELEADIREEKASWKTQIQYDKTNVLADFEQLRDILDWEESNELQNLEKEEEDILKSLTNSETEMVQQTQSLRELISDLEHRLQGSVMELLQGVDGVIKRTENVTLKKPETFPKNQRRVFRAPDLKGMLEVFRELTDVRRYWVDVTVAPNNISCAVISEDKRQVSSPKPQIIYQAPGTLFTFPSLVNFNYCTGILGSQSITSGKHYWEVDVSKKTAWILGVCAGFQPDAMCNIEKNENYQPKYGYWVIGLEEGVKCSAFQDSSFHTPSVPFIVPLSVIICPDRVGVFLDYEACTVSFFNITNHGFLIYKFSHCSFSQPVFPYLNPRKCGVPMTLCSPSS [human TRIM5α, 330-340 = QAPGTLFTFPSLV]	45.3 ± 26

Same assay, conditions: library: insertions and deletions

Sequence	enrichment
MASGILVNVKEEVTCPICLELLTQPLSLDCGHSFCQACLTANHKKSMLDKGESSCPVCRISYQPENIRPNRHVANIVEKLREVKLSPEGQKVDHCARHGEKLLLFCQEDGKVICWLCERSQEHRGHHTFLTEEVAREYQVKLQAALEMLRQKQQEAEELEADIREEKASWKTQIQYDKTNVLADFEQLRDILDWEESNELQNLEKEEEDILKSLTNSETEMVQQTQSLRELISDLEHRLQGSVMELLQGVDGVIKRTENVTLKKPETFPKNQRRVFRAPDLKGMLEVFRELTDVRRYWVDVTVAPNNISCAVISEDKRQVSSPKPQIIIYGARGTRYQTFVNFNYCTGILGSQSITSGKHYWEVDVSKKTAWILGVCAGFQPDAMCNIEKNENYQPKYGYWVIGLEEGVKCSAFQDSSFHTPSVPFIVPLSVIICPDRVGVFLDYEACTVSFFNITNHGFLIYKFSHCSFSQPVFPYLNPRKCGVPMTLCSPSS [human TRIM5α, 1-codon duplication at 327]	0.627 ± 0.11
MASGILVNVKEEVTCPICLELLTQPLSLDCGHSFCQACLTANHKKSMLDKGESSCPVCRISYQPENIRPNRHVANIVEKLREVKLSPEGQKVDHCARHGEKLLLFCQEDGKVICWLCERSQEHRGHHTFLTEEVAREYQVKLQAALEMLRQKQQEAEELEADIREEKASWKTQIQYDKTNVLADFEQLRDILDWEESNELQNLEKEEEDILKSLTNSETEMVQQTQSLRELISDLEHRLQGSVMELLQGVDGVIKRTENVTLKKPETFPKNQRRVFRAPDLKGMLEVFRELTDVRRYWVDVTVAPNNISCAVISEDKRQVSSPKPQIIYGARGTRYQTFTRYQTFVNFNYCTGILGSQSITSGKHYWEVDVSKKTAWILGVCAGFQPDAMCNIEKNENYQPKYGYWVIGLEEGVKCSAFQDSSFHTPSVPFIVPLSVIICPDRVGVFLDYEACTVSFFNITNHGFLIYKFSHCSFSQPVFPYLNPRKCGVPMTLCSPSS [human TRIM5α, 6-codon duplication at 334]	1.82 ± 2.4
MASGILVNVKEEVTCPICLELLTQPLSLDCGHSFCQACLTANHKKSMLDKGESSCPVCRISYQPENIRPNRHVANIVEKLREVKLSPEGQKVDHCARHGEKLLLFCQEDGKVICWLCERSQEHRGHHTFLTEEVAREYQVKLQAALEMLRQKQQEAEELEADIREEKASWKTQIQYDKTNVLADFEQLRDILDWEESNELQNLEKEEEDILKSLTNSETEMVQQTQSLRELISDLEHRLQGSVMELLQGVDGVIKRTENVTLKKPETFPKNQRRVFRAPDLKGMLEVFRELTDVRRYWVDVTVAPNNISCAVISEDKRQVSSPKPQIIYGARGTRYQTFVNFNYCTNFNYCTGILGSQSITSGKHYWEVDVSKKTAWILGVCAGFQPDAMCNIEKNENYQPKYGYWVIGLEEGVKCSAFQDSSFHTPSVPFIVPLSVIICPDRVGVFLDYEACTVSFFNITNHGFLIYKFSHCSFSQPVFPYLNPRKCGVPMTLCSPSS [human TRIM5α, 6-codon duplication at 341]	0.794 ± 0.14
MASGILVNVKEEVTCPICLELLTQPLSLDCGHSFCQACLTANHKKSMLDKGESSCPVCRISYQPENIRPNRHVANIVEKLREVKLSPEGQKVDHCARHGEKLLLFCQEDGKVICWLCERSQEHRGHHTFLTEEVAREYQVKLQAALEMLRQKQQEAEELEADIREEKASWKTQIQYDKTNVLADFEQLRDILDWEESNELQNLEKEEEDILKSLTNSETEMVQQTQSLRELISDLEHRLQGSVMELLQGVDGVIKRTENVTLKKPETFPKNQRRVFRAPDLKGMLEVFRELTDVRRYWVDVTVAPNNISCAVISEDKRQVSSPKPQKPQIIYGARGTRYQTFVNFNYCTGILGSQSITSGKHYWEVDVSKKTAWILGVCAGFQPDAMCNIEKNENYQPKYGYWVIGLEEGVKCSAFQDSSFHTPSVPFIVPLSVIICPDRVGVFLDYEACTVSFFNITNHGFLIYKFSHCSFSQPVFPYLNPRKCGVPMTLCSPSS [human TRIM5α, 3-codon duplication at 324]	0.213 ± 0.14
MASGILVNVKEEVTCPICLELLTQPLSLDCGHSFCQACLTANHKKSMLDKGESSCPVCRISYQPENIRPNRHVANIVEKLREVKLSPEGQKVDHCARHGEKLLLFCQEDGKVICWLCERSQEHRGHHTFLTEEVAREYQVKLQAALEMLRQKQQEAEELEADIREEKASWKTQIQYDKTNVLADFEQLRDILDWEESNELQNLEKEEEDILKSLTNSETEMVQQTQSLRELISDLEHRLQGSVMELLQGVDGVIKRTENVTLKKPETFPKNQRRVFRAPDLKGMLEVFRELTDVRRYWVDVTVAPNNISCAVISEDKRQVSSPKPQIIYGARGTRYQTFVNFTFVNFNYCTGILGSQSITSGKHYWEVDVSKKTAWILGVCAGFQPDAMCNIEKNENYQPKYGYWVIGLEEGVKCSAFQDSSFHTPSVPFIVPLSVIICPDRVGVFLDYEACTVSFFNITNHGFLIYKFSHCSFSQPVFPYLNPRKCGVPMTLCSPSS [human TRIM5α, 5-codon duplication at 338]	0.577 ± 0.32
MASGILVNVKEEVTCPICLELLTQPLSLDCGHSFCQACLTANHKKSMLDKGESSCPVCRISYQPENIRPNRHVANIVEKLREVKLSPEGQKVDHCARHGEKLLLFCQEDGKVICWLCERSQEHRGHHTFLTEEVAREYQVKLQAALEMLRQKQQEAEELEADIREEKASWKTQIQYDKTNVLADFEQLRDILDWEESNELQNLEKEEEDILKSLTNSETEMVQQTQSLRELISDLEHRLQGSVMELLQGVDGVIKRTENVTLKKPETFPKNQRRVFRAPDLKGMLEVFRELTDVRRYWVDVTVAPNNISCAVISEDKRQVSSPKPQIIYGARGTRYQTFVNFNYCTGVNFNYCTGILGSQSITSGKHYWEVDVSKKTAWILGVCAGFQPDAMCNIEKNENYQPKYGYWVIGLEEGVKCSAFQDSSFHTPSVPFIVPLSVIICPDRVGVFLDYEACTVSFFNITNHGFLIYKFSHCSFSQPVFPYLNPRKCGVPMTLCSPSS [human TRIM5α, 8-codon duplication at 340]	2.66 ± 3.3
